About 800 (1.6%) of roughly 50,000 compounds showed an effect of 50% or more. The list shows a part of the results.
What follows are molecules tested against Bcl-2-like protein 10 (Homo sapiens) (UniProt Q9HD36) (assay: Phenotype converters, Bcl-B/TR3 peptide binding displacement, primary biochemical FP (AID 1240;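 further: 0% = Bcl-B with tracer peptide and DMSO and 100% = tracer peptide lacking Bcl-B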)). Conditions: GST-Bcl-B / FITC-TR3 peptide fluorescence polarization; stronger effect = higher value; compound at 3.75 mg/L.
Chain of UniProt Q9HD36 (Q9HD36 whole entry, looked up): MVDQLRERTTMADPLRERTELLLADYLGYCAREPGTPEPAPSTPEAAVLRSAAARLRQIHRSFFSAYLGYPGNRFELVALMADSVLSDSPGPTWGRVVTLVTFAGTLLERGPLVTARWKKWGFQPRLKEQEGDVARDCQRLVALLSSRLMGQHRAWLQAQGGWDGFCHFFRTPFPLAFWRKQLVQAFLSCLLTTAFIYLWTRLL

SMILES | displacement
O=C(Nc1cc([N+](=O)[O-])ccc1C(=O)Nc1cccnc1)c1ccccc1 | 7.9%
CCOC(=O)c1ccc(P(=O)(C(C)(C)C)C(C)(C)C)cc1 | 33%
COc1ccc(Br)cc1/C=C/C(=O)Nc1c(C)cccc1C | 10%
O=C(Nc1ccccc1Cl)c1ccc(CN2CCOCC2)cc1 | 2.2%
Cc1ccc(N2C(=O)SC(Nc3ccc(C)c(Cl)c3)C2=O)cc1 (stereo not given) | 14.8%
CC(C)c1nnc(NC(=O)CSc2nnc3c(n2)[nH]c2ccccc23)s1 | -5.1%
O=C(NCc1ccco1)/C(=C/c1cccc(Oc2ccccc2)c1)NC(=O)c1ccccc1 | 7.8%
O=C(/C=C/c1ccc([N+](=O)[O-])cc1)NC(=S)Nc1ccccc1Cl | -3.4%
Cc1cc(=O)oc2cc(OCC(=O)OC(C)C)ccc12 | 1.9%
Cc1c(NC(=O)/C=C/c2cccc3ccccc23)c(=O)n(-c2ccccc2)n1C | 6.8%
COc1ccc(Nc2nc(-c3cc4cc(OC)ccc4oc3=O)cs2)cc1 | -3.6%
CCCCN1C(=O)/C(=C\c2ccco2)SC1=S | 5.6%
O=C1NC(=S)N/C1=C/c1ccc(OCc2ccccc2)c(Br)c1 | 47.7%
COc1ccc(N2CN=C3SC(CO)(CO)C(=O)N3C2)cc1 | 10.1%
COC(=O)c1c2nc3ccccc3sc-2cc(=O)c1N | 2%
COc1ccc(N2C(=O)/C(=C/c3ccc(OCC(=O)O)c(OC)c3)C(=O)NC2=S)cc1 | 6.4%
Cc1ccc(C(=O)Nc2ccc3c(c2)OCO3)o1 | 0%
CCc1ccc(NC(=O)C(=O)NCCCN2CCOCC2)cc1 | 12.3%
Clc1cccc(OCCCCCCN2CCOCC2)c1 | 4.7%
CC1=C(C(=O)OCc2ccccc2)C(c2ccccc2OC(C)C)CC(=O)N1 (stereo not given) | -6.4%
N/C(=N\OC(=O)COc1ccc2ccccc2c1)c1ccccn1 | 11%
O=C(Nc1ccccc1C(=O)Nc1ccncc1)c1cccs1 | -8.5%
COc1cc(CN2CCN(Cc3ccncc3)CC2)cc(OC)c1OC | 2.1%
Cc1ccc(C2CC(C(F)(F)F)n3nc(CO)c(Cl)c3N2)cc1 (stereo not given) | 1.8%

SMILES | displacement
CC1(C)CC(=O)C2=C(C1)OC1=C(C(=O)CC(C)(C)C1)C2c1ccc(-c2ccccc2Cl)o1 | 8%
CCOc1ccc(C(=O)NCc2ccc3c(c2)OCO3)cc1 | 1.6%
CC1=CC(C)C2COC(c3ccccc3O)C1C2C (stereo not given) | 6.6%
O=C1/C(=C\c2cc([N+](=O)[O-])c(Cl)cc2Cl)Sc2ccccc21 | -9.3%
O=C(NCc1ccc2c(c1)OCO2)C(=O)Nc1ccccc1 | 17.3%
COc1cccc(/C=C2/SC(N)=NC2=O)c1 | 13.2%
O=[N+]([O-])c1ccccc1/C=N/Nc1nc(-c2ccccc2)cs1 | -0.4%
CCn1c2ccccc2c2cc(NC(=O)COc3ccccc3Cl)ccc21 | -10.1%
Cc1ccc(NC(=O)COc2cccc(Cl)c2)c(Br)c1 | -2%
CC1=C(C(=O)Nc2cccc(Cl)c2)C(c2ccccc2F)NC(=S)N1 (stereo not given) | 1.7%
Cc1ccc(C(=O)Nc2ccc3nn(-c4cccc([N+](=O)[O-])c4)nc3c2)cc1 | 10.9%
O=C(O)c1ccc(NS(=O)(=O)c2cccc3cccnc23)cc1 | 4.6%
COc1ccc(Cl)cc1NC(=O)C1=C(C)NC(=S)NC1c1cccc(Cl)c1 (stereo not given) | 12.9%
CN1C(=O)NC(=O)/C(=C\c2cc(Cl)c(OCC(=O)O)c(Cl)c2)C1=O | -3.5%
COc1ccc(-n2c(=O)c3c4c(sc3n3c(=S)[nH]nc23)CCCC4)cc1 | 2.3%
Cc1onc(-c2c(Cl)cccc2Cl)c1C(=O)Nc1nc(-c2ccc3ccccc3c2)cs1 | 16.2%
Cc1cc(-c2ccco2)c(C#N)c(SCC(=O)c2ccc(O)c(O)c2)n1 | -10.4%
Brc1ccc(C(Cc2ccccc2)Nc2ccccn2)cc1 (stereo not given) | -0.4%
COc1ccc(-c2cc(C(F)(F)F)n3nc(C(=O)N4CCOCC4)c(Cl)c3n2)cc1 | -9.5%
CC(C)(C)c1ccc(S(=O)(=O)Nc2ccccc2[N+](=O)[O-])cc1 | 9.9%
CN(C)c1ccc(/C=N/NC(=O)c2ccccc2O)cc1[N+](=O)[O-] | 6.1%
Cc1nc2sccn2c1C(=O)NN=C1CCCCC1 | 3.8%
Cc1ccccc1NC(=O)c1c(NC(=O)c2ccccc2Br)sc2c1CCCCC2 | 76.6%
Cc1nn(C)c(C)c1NC(=O)c1ccc(-c2ccccc2)cc1 | -0.8%

SMILES | displacement
CN1CCN(C(=O)c2ccc(S(=O)(=O)N3CCOCC3)cc2)CC1 | -2.9%
N#CSCCCCOc1ccccc1F | 6.3%
O=S(=O)(Cc1ccccc1)c1nc2ccccc2[nH]1 | 8.9%
CCCCOC(=O)c1ccc(NC(=O)c2cncc(Br)c2)cc1 | 16.4%
Clc1cccc(/C=N/N2CCN(C(c3ccccc3)c3ccccc3)CC2)c1 | -4%
Cc1ccc(NC(=O)C(C)N2C(=O)c3ccccc3C2=O)c(C)c1 (stereo not given) | 1.2%
O=C1c2ccc(-c3nc4ccccc4c(=O)o3)cc2C(=O)N1c1cccc(I)c1 | -10.6%
Cc1cc([N+](=O)[O-])c2[nH]c(C(=O)N/N=C/c3ccccn3)c(-c3ccccc3)c2c1 | 2.7%
Cc1ccccc1-c1cc(C(=O)NC(C)C)c2ccccc2n1 | -10.7%
O=C1/C(=C/c2ccc(Cl)cc2)SC(=S)N1CCS(=O)(=O)O | 3.2%
CCc1ccc(-c2csc(-c3cc4cccc(OC)c4oc3=O)n2)cc1 | -23.6%
COc1ccc(C2=NN(C(C)=O)C(c3ccccc3OC)C2)cc1 (stereo not given) | 2.3%
COc1ccc(C(=O)Nc2ccc(/C=C/C(=O)c3ccccc3)cc2)cc1 | -7.8%
Cc1cc(C)c(C)c(C=C2C(=O)c3ccccc3C2=O)c1C | -8.6%
COc1cccc(C(=O)Nc2cccc(-c3cc4ccccc4oc3=O)c2)c1 | -11.3%
Cc1ccc(-c2ccc(OC(=O)CCN3C(=O)c4ccccc4C3=O)cc2)cc1 | -7.9%
CCC(C(=O)Nc1ccccc1)c1ccccc1 (stereo not given) | -0.8%
N/C(=N\c1nc(C(F)(F)F)cc(=O)[nH]1)Nc1ccc(-c2ccccc2)cc1 | 1.9%
O=Cc1ccc(OCC(O)Cn2c3ccccc3c3ccccc32)cc1 (stereo not given) | 14.4%
O=c1[nH]c(=O)n(-c2cccc(C(F)(F)F)c2)c(O)c1C=C1C=CC=N1 | 6.3%
CCOC(=O)c1ccc(NC(=O)COc2ccc(OC)cc2)cc1 | 6.5%
Cn1c(NCc2ccccc2)cc(=O)n(C)c1=O | 3.7%

— PubChem BioAssay AID1240 (Sanford-Burnham Center for Chemical Genomics, 2008)
